Experimental data: the supplement of paper PMC9446081
Out of some 39,000 compounds screened, about 220 (0.56%) showed activity. This is one part of the list.

test system: Escherichia coli K-12 BW25113; experiment: relative growth (OD600 normalised to plate interquartile mean) (fraction); higher = less growth inhibition, active = 0.2 or less; details: 50 µM; LB; incubation time: overnight (16-24 h)
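Also: static incubation at 37 °C against the wild-type strain, values averaged over two biological replicates.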

Compound	relative growth
COc1ccc2c3c(n(c2c1)C)[C@H](CO)N(C[C@]13CN(CC2CCOCC2)C1)C(=O)Cc1ccccn1	inactive: 0.969
COc1cccc(NC(=O)N2C[C@@H](O)COC[C@H]3O[C@@H](CC(=O)NC4Cc5ccccc5C4)CC[C@@H]32)c1	inactive: 0.988
C[C@@H]1CCCCO[C@@H](CN(C)S(=O)(=O)c2cccs2)[C@H](C)CN([C@@H](C)CO)C(=O)c2cc(NS(=O)(=O)c3cn(C)cn3)ccc2O1	inactive: 1
COc1ccc(S(=O)(=O)Nc2ccc3c(c2)C(=O)N([C@@H](C)CO)C[C@H](C)[C@@H](CN(C)S(=O)(=O)c2ccc(Cl)cc2)OCCCC[C@@H](C)O3)cc1	inactive: 1.02
CO[C@H]1CN(C)C(=O)c2cc(NC(=O)C3CC3)ccc2OC[C@@H](C)N(C(=O)Cc2ccccn2)C[C@@H]1C	inactive: 0.981
C[C@@H]1CCCCO[C@H](CN(C)Cc2ccc(C(=O)O)cc2)[C@@H](C)CN([C@@H](C)CO)C(=O)c2cc(NC(=O)c3ccccc3)ccc2O1	inactive: 1.01
COc1ccc(NC(=O)Nc2cccc3c2O[C@@H](CN(C)Cc2ccc(-c4ccccc4)cc2)[C@H](C)CN([C@H](C)CO)C3=O)cc1	inactive: 1.01
C[C@@H]1CCCCO[C@@H](CN(C)C(=O)Cc2ccccc2)[C@H](C)CN([C@@H](C)CO)C(=O)c2cc(NC(=O)NC3CCCCC3)ccc2O1	inactive: 1
OCc1cccc(CO)c1F	inactive: 1.04
NCc1cnn(-c2ccc(F)cc2)c1	inactive: 0.988
C[C@@H]1CN([C@H](C)CO)C(=O)c2cc(NC(=O)Nc3cccc4ccccc34)ccc2O[C@H]1CN(C)Cc1ccc(Oc2ccccc2)cc1	inactive: 1.01
O=C(O)Cn1nnnc1-c1ccc(F)cc1	inactive: 0.995
COc1ccccc1-c1cnc2c(c1)C(=O)N([C@@H](C)CO)C[C@H](C)[C@H](CN(C)C(=O)c1cccnc1)O2	inactive: 1.01
C[C@H]1CN([C@@H](C)CO)S(=O)(=O)c2ccc(C3=CCCC3)cc2O[C@H]1CN(C)C(=O)c1cnccn1	inactive: 1.02
Cc1cn(CC(=O)NCCN)c(=O)[nH]c1=O	inactive: 0.97
C[C@@H]1CN([C@@H](C)CO)C(=O)c2c(c3ccccc3n2C)-c2ccccc2CO[C@@H]1CN(C)Cc1cccc(O)c1	inactive: 0.956
CC(C)CN1C(=O)C[C@@H](N2CCOCC2)C1=O	inactive: 1.01
O=C(O)c1ccc(-n2nc(-c3ccccc3O)nc2-c2ccccc2O)cc1	inactive: 1.04
Cc1ccc(S(=O)(=O)Nc2ccc3c(c2)CC(=O)N([C@H](C)CO)C[C@H](C)[C@H](CN(C)S(=O)(=O)c2cn(C)cn2)O3)cc1	inactive: 0.996
C[C@@H]1CN([C@@H](C)CO)C(=O)c2cccc(NC(=O)Nc3ccccc3)c2O[C@H]1CN(C)Cc1ccc(Cl)c(Cl)c1	inactive: 0.955
CC(C)NC(=O)N(C)C[C@H]1OCc2cnnn2CCCC(=O)N([C@H](C)CO)C[C@H]1C	inactive: 1.03

Compound	relative growth
CC(C)(C)[S@@](=O)N1Cc2cc(C(=O)NCCc3ccncc3)nc(-c3cccc(-c4ccc(C#N)cc4)c3)c2[C@H]1CCO	inactive: 1.01
CC(=O)N1C[C@@H]2CN(c3ncccn3)CC[C@H]2C1	inactive: 1
C[C@H](CO)N1C[C@H](C)[C@@H](CN(C)Cc2ccc(-c3ccccc3)cc2)Oc2ccc(NS(=O)(=O)c3cccs3)cc2C1=O	inactive: 0.996
C[C@@H]1CN([C@@H](C)CO)C(=O)Cc2cc(NC(=O)C3CCCCC3)ccc2O[C@H]1CN(C)C(=O)Nc1cccc2ccccc12	inactive: 1.01
C[C@@H]1CCCCO[C@H](CN(C)C(=O)Nc2ccc(F)cc2)[C@H](C)CN([C@H](C)CO)C(=O)c2cc(NC(=O)c3ccccc3)ccc2O1	inactive: 1.02
COc1ccc(NC(=O)Nc2ccc3c(c2)C(=O)N([C@@H](C)CO)C[C@@H](C)[C@H](CN(C)C(=O)Nc2ccc4c(c2)OCO4)OCCCC[C@@H](C)O3)cc1	inactive: 1.03
Cn1c(=O)sn(-c2ccccc2)c1=O	inactive: 1.03
C[C@@H]1CC=CC[C@H](c2ccc3c(c2)OCO3)NC(=O)[C@@H](Cc2ccccc2)N(C)C(=O)c2ccccc2O1	inactive: 1.05
C[C@H](CO)N1C[C@H](C)[C@@H](CN(C)Cc2ccc(C(F)(F)F)cc2)Oc2ccc(NC(=O)CCCCCC(=O)Nc3ccccc3N)cc2C1=O	inactive: 1.04
C[C@H](CO)N1C[C@H](C)[C@H](CN(C)C(=O)Nc2ccc3c(c2)OCO3)Oc2ccc(NC(=O)Nc3cccc4ccccc34)cc2CC1=O	inactive: 1
C[C@@H]1CN([C@H](C)CO)C(=O)c2cc(NC(=O)Cc3ccccc3)ccc2O[C@@H](C)CCCCO[C@H]1CN(C)Cc1ccc2c(c1)OCO2	inactive: 1
COc1ccc([C@H]([C@H](Cc2ccccc2)OC(C)=O)N(C/C=C\[C@@H](O)c2ccccc2)[C@@H](Cc2ccccc2)C(OC)OC)cc1	inactive: 0.958
CN1C(=O)[C@@]2(c3cc(Cl)ccc31)[C@H](C(=O)O)[C@H]1C(=O)O[C@H](c3ccccc3)[C@H](c3ccccc3)N1[C@@H]2c1ccc(F)cc1	inactive: 0.947
CCCCCC(=O)Cc1cc(O)cc(O)c1C(=O)Oc1cc(CC(=O)CCCCC)c(C(=O)O)c(OC)c1	inactive: 0.774
COc1ccc(N2C(=O)N3CCc4cc(OC)c(OC)cc4[C@@H]3[C@@H](Cc3ccccc3)[C@H]2COC(=O)NCCCCCC(=O)NO)cc1	inactive: 0.981
COc1ccc([C@H]2CNCCN2)cc1	inactive: 0.986
COc1ccc(S(=O)(=O)Nc2ccc3c(c2)C(=O)N([C@@H](C)CO)C[C@@H](C)[C@H](CN(C)Cc2ccccc2)OCCCC[C@H](C)O3)cc1	inactive: 1.02
COc1ccc(-c2coc3cc(O)ccc3c2=O)c(O)c1O	inactive: 1.11
Cc1nnc(SCC2=C(C(=O)[O-])N3C(=O)C(NC(=O)Cn4cnnn4)C3SC2)s1.[Na+] (stereo not drawn)	active: 0.0433
CO[C@@H]1CN(C)C(=O)c2cc(NC(=O)c3ccc(F)cc3)ccc2OC[C@@H](C)N(C(=O)CN(C)C)C[C@H]1C	inactive: 0.988
C[C@H](CO)N1C[C@H](C)[C@@H](CN(C)C(=O)Nc2ccc(C(F)(F)F)cc2)Oc2ncc(C3=CCCC3)cc2C1=O	inactive: 1.03

Compound	relative growth
Cc1noc(C)c1NC(=O)Nc1ccc2c(c1)C(=O)N([C@@H](C)CO)C[C@@H](C)[C@H](CN(C)CC1CCCCC1)OCCCC[C@@H](C)O2	inactive: 0.968
Cc1noc(C)c1S(=O)(=O)Nc1ccc2c(c1)CC(=O)N([C@H](C)CO)C[C@@H](C)[C@H](CN(C)Cc1ccc(-c3ccccc3)cc1)O2	inactive: 0.976
C[C@@H]1CN([C@@H](C)CO)C(=O)c2cc(NC(=O)CCC(F)(F)F)ccc2O[C@@H]1CN(C)Cc1ccc(C(F)(F)F)cc1	inactive: 0.992
C[C@H]1CN([C@@H](C)CO)C(=O)c2cc(C#Cc3ccncc3)cnc2O[C@H]1CN(C)S(=O)(=O)c1ccccc1F	inactive: 0.974
Cc1noc(C)c1S(=O)(=O)N(C)C[C@@H]1Oc2ccc(NS(=O)(=O)c3ccc(F)cc3)cc2C(=O)N([C@@H](C)CO)C[C@@H]1C	inactive: 0.991
C=CC[C@@H](CC(=O)N[C@@H](CO)Cc1ccccc1)C(=O)N1CCC[C@@H]1COC(=O)[C@@H](CC=C)NC(=O)OCC1c2ccccc2-c2ccccc21	inactive: 1.03
CS(=O)(=O)CC(=O)N1C[C@@H]2CN(Cc3ccoc3)CCO[C@@H]2C1	inactive: 0.985
Oc1cc(C2CCCCC2)cc(C2CCCCC2)c1	inactive: 1.02
C[C@@H]1CN([C@@H](C)CO)C(=O)c2cc(NS(=O)(=O)c3cccs3)ccc2O[C@@H]1CN(C)S(=O)(=O)c1cn(C)cn1	inactive: 0.982
COc1ccc(-c2noc(CSc3nc4sc(C)c(C)c4c(=O)n3-c3ccccc3)n2)cc1OC	inactive: 1.04
C[C@H](CO)N1C[C@H](C)[C@H](CN(C)C(=O)Nc2ccc3c(c2)OCO3)Oc2ccc(NC(=O)c3ccncc3)cc2CC1=O	inactive: 0.998
C[C@@H]1CCCCO[C@@H](CN(C)S(=O)(=O)c2ccc(F)cc2)[C@H](C)CN([C@H](C)CO)C(=O)c2cc(NC(=O)Nc3ccc4c(c3)OCO4)ccc2O1	inactive: 1.04
CC(C)(C)CC(C)(C)c1ccc(OCCOCC[N+](C)(C)Cc2ccccc2)cc1.[Cl-]	active: 0.0469
Cc1ccc(S(=O)(=O)N(C)C[C@@H]2Oc3ccc(NS(=O)(=O)c4ccc(F)cc4)cc3CC(=O)N([C@@H](C)CO)C[C@H]2C)cc1	inactive: 0.984
COc1ccc2c3c(n(c2c1)C)[C@H](CO)N(C[C@]13CCN(CC1)S(=O)(=O)c1ccccc1)C(=O)c1cccnc1	inactive: 0.998
CC(C)C(=O)N1CC[C@H]2CN(CC(=O)N(C)C)S(=O)(=O)[C@@H]2CC1	inactive: 0.983
Cc1ccc(S(=O)(=O)N(C)C[C@H]2OCCCC[C@H](C)Oc3ccc(NC(=O)C4CCCCC4)cc3C(=O)N([C@@H](C)CO)C[C@H]2C)cc1	inactive: 1.04
COC(=O)/C=C/c1cn([C@H]2OC[C@@H](CO)[C@@H]2O)c(=O)[nH]c1=O	inactive: 1.03
CNC(=O)CN(C#N)c1nc(C)cc(C)n1	inactive: 1.01
C[C@H]1CN([C@@H](C)CO)C(=O)Cc2cc(NS(=O)(=O)c3cn(C)cn3)ccc2O[C@H]1CN(C)S(=O)(=O)c1cccs1	inactive: 0.997
COCC(=O)Nc1ccc2c(c1)C(=O)N(C)[C@H]1CC[C@@H](CC(=O)NCc3ccc(OC)cc3)O[C@@H]1CO2	inactive: 0.993
